The values below come from PubChem BioAssay AID1346428 (National Center for Advancing Translational Sciences (NCATS), 2018).

In all, about 48,000 compounds went through this assay and about 1,200 (2.5%) were called active. Not shown: some 2% with an inconclusive outcome.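 How the source made its calls: active means activation of at least 60% and not above a set upper limit (about 1 call in 100 departs from these limits); inconclusive means activation of 40% to 60%, or above that upper limit; inactive means activation under 40%.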 Some of the results follow.

This assay addresses Probable G-protein coupled receptor 32 (Homo sapiens) (UniProt O75388). Kind of assay: qHTS for Agonists of Human Resolvin D1 Receptor DRV1. Further: 0% is about no effect. Conditions: CHO-K1 GPR32 beta-arrestin PathHunter luminescence, 90 min; at 76.9 µM; active compounds read high; zero percent set by DMSO-only wells. In a few lines: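 PathHunter beta-arrestin recruitment in CHO-K1 cells stably expressing ProLink-tagged GPR32. Cells were exposed to compound for 90 min at 37 C, then chemiluminescence was read after 1 h detection at ambient temperature; DMSO served as basal control.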
Sequence of UniProt O75388 (O75388 whole entry, looked up): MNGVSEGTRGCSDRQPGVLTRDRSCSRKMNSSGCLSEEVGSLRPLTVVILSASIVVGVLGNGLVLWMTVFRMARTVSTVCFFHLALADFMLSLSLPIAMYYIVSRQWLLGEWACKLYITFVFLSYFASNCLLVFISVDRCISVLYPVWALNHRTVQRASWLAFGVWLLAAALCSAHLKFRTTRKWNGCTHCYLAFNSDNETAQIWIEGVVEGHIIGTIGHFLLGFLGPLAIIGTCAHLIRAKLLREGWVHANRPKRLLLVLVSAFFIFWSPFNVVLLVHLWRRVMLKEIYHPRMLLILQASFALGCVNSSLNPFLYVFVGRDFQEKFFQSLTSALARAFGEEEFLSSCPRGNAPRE
A general note: In qHTS, concentration-response curves come from the screen itself.
With `COc1cc2[nH]c(=O)n(CCCCCC(=O)N3CCN(c4cccc(C(F)(F)F)c4)CC3)c(=O)c2cc1OC`, the activation is active: 63.1%.
The value for `COc1cccc(Oc2nc3c(c(=O)n(Cc4ccccc4F)c(=O)n3C)n2C)c1` was inactive: -6.63%.
In the case of `Cc1nnc(C(=O)NC(C)(C)c2nc(C(=O)NCc3ccc(F)cc3)c(O)c(=O)n2C)o1` it was inactive: -22.1%.
Consider `CC(C)c1ccc(NC(=O)CN(C)S(=O)(=O)c2ccc3c(c2)c(=O)n(C)c(=O)n3C)cc1`, for which the activation was inactive: -12.9%.
Take `CCn1c(=O)n(CC)c2cc(N3CCCCC3)c(NC(=O)Nc3ccccc3Cl)cc21`: the activation was inactive: -23.9%.
The value for `Cc1cccc(NS(=O)(=O)c2ccc3oc(=O)c4ncn(C)c4c3c2)c1C` was inactive: -16%; that for `COc1cccc(N2CCN(C(=O)c3c(C)oc4ncnc(N5CCOCC5)c34)CC2)c1` was inactive: -9.72%; that for `Cc1c(C(=O)N(C)C)sc2c1c(=O)n(-c1ccc(Cl)c(Cl)c1)c(=O)n2CC(=O)Nc1cccc(C(F)(F)F)c1` was inactive: -5.49%.
Turning to `CCOC(=O)Cc1ccc(NC(=O)NCc2ccc3c(c2)CCN3C(=O)CC)cc1`, the activation was inactive: 21.8%.
In the case of `O=C(CCS(=O)(=O)c1cc(Br)cc2c1N(C(=O)C1CC1)CC2)Nc1ccc(Br)cc1F` it was inactive: 5.24%; in that of `CCc1ccccc1N(C)C(=O)Cn1cnc2sc(C)c(S(=O)(=O)N3CCN(c4ncccn4)CC3)c2c1=O`, inactive: -8.44%.
Consider `COc1ccc(NC(=O)Cn2c(=O)oc3cc(S(=O)(=O)N4CCC(C)CC4)ccc32)c(OC)c1`, for which the activation was inactive: 20.5%.
The value for `CCOc1ccccc1CNC(=O)CCn1ccc2cc(S(=O)(=O)N3CCC(C)CC3)ccc21` was inactive: -26.7%.
The value for `COC(=O)c1ccc(Cn2nnc3sc4c(c3c2=O)CCC(C)C4)cc1` (centres undefined) was inactive: 13.3%.
The value for `Cc1ccc(NS(=O)(=O)c2cc(Br)cc3c2N(C(=O)C2CC2)CC3)cc1C` was inactive: 31.3%.
Consider `CCCS(=O)(=O)c1c(Nc2ccccc2C)sc(C(=O)c2ccccc2)c1N`, for which the activation was inactive: -50.5%.
With `O=C(NC1CCCc2ccccc21)c1ccc2c(c1)sc1nc(-c3ccc(F)cc3)cn12` (centres undefined), the activation is inactive: -7.96%.
With `CCOc1ccc(CCNC(=O)c2cc3c(=O)[nH]c4ccc(C)cc4c3s2)cc1OCC`, the activation was inactive: 4.94%.
In the case of `COc1ccc(-c2nc(SCC(=O)NCCc3ccc(OC)c(OC)c3)n[nH]2)cc1` it was inactive: -18%; in that of `COc1ccc2c(CNCCc3cccs3)c(C(=O)O)n(Cc3ccccc3)c2c1`, inactive: 47.4%; in that of `O=C(CCCN1C(=O)C(c2ccccc2)Oc2cccnc21)Nc1ccc(Br)cc1F` (centres undefined), inactive: -3.41%.
Turning to `CCc1ccc2c(c1)NC(c1cccs1)=NC(c1ccc(F)cc1)=N2`, the activation is inactive: -4.14%.
The value for `O=Cc1ccc(O)c(O)c1O` was inactive: -6.64%.
`CC(=O)N(Cc1cccnc1)c1nc2c(C)c(C)ccc2s1`: the activation is inactive: -16.3%.
Turning to `Cc1ccc(Cl)cc1NC(=O)C1CCC(CNS(=O)(=O)c2cccc3nsnc23)CC1` (centres undefined), the activation was inactive: -10.3%.
In the case of `Cc1ccc(N2CC(c3nc4ccccc4n3CCC3CCCCC3)CC2=O)cc1` (centres undefined) it was inactive: -4.83%; in that of `CCOc1ccc(C(CC(=O)O)N2Cc3ccccc3C2=O)cc1OC` (centres undefined), inactive: -1.27%.
As for `COc1ccc(C2c3c(oc4ccc(F)cc4c3=O)C(=O)N2Cc2ccc3c(c2)OCO3)cc1` (centres undefined), the activation was inactive: -3.96%.
`COC(=O)c1ccccc1NC(=O)NCCc1c(C)nn(C)c1C`: the activation is inactive: 5.57%.
In the case of `CCc1ccc(CNCc2c(C(=O)O)n(Cc3cccc(F)c3)c3cc(OC)ccc23)cc1` it was active: 109%.
In the case of `Cc1cccc(N(C)C(=O)c2cc(S(=O)(=O)N3CCCC3)cn2C)c1`, the activation was inactive: -20.4%.
Turning to `N#C/C(=C\c1ccccc1)c1nc(-c2cc3cc(Br)ccc3oc2=O)cs1`, the activation was inactive: 24.7%.
Turning to `O=C(NCCS(=O)(=O)N1CCN(c2ccccc2)CC1)C(c1ccccc1)c1ccccc1`, the activation is inactive: -22.5%.
Consider `O=C1CC(c2ccccc2)Cc2[nH]c(=O)c(C(=O)Nc3cccc(F)c3)cc21` (centres undefined), for which the activation was inactive: 5.29%.
The value for `Cc1cccc(NC(=O)c2c(NC(=O)C(F)(F)F)sc3c2CCCCC3)c1` was inactive: 44.5%; that for `CCOC(=O)c1cccc(Nc2c3c(nc4ccccc24)CCC3)c1` was active: 77.8%; that for `O=C(Nc1ccccc1Br)C1CCCN(S(=O)(=O)c2cccc3nsnc23)C1` (centres undefined) was inactive: 28.7%.
With `COc1cccc(N2CCN(S(=O)(=O)c3ccc4[nH]c5c(c4c3)CCCC5)CC2)c1`, the activation was inactive: 1.1%.
The value for `CCc1ccc(OCC(=O)N(Cc2ccc(Cl)cc2)C2CCS(=O)(=O)C2)cc1` (centres undefined) was inactive: -4.73%; that for `O=C(CSc1nc2c([nH]c3ccccc32)c(=O)n1-c1ccc(F)cc1)N1CCCCC1` was inactive: -10.6%; that for `CCOC(=O)c1oc2c(c1C)-c1nn(Cc3ccc(Cl)cc3)cc1CC2` was inactive: -41.2%.
As for `Cn1c(NCCO)nc2c1c(=O)n(Cc1ccccc1Cl)c(=O)n2C`, the activation was inactive: -3.82%.
Turning to `CCC(C)NC(=O)Cn1c(=O)cc(-c2ccccc2)c2c(C)nn(C)c21` (centres undefined), the activation is inactive: 10.3%.
Regarding `CN1C2CCC1CC(OC(=O)c1c[nH]c3ccccc13)C2` (centres undefined), the activation is inactive: -6.21%.
In the case of `COc1ccccc1NC(=O)Cn1nnc(C(=O)NCc2ccc3c(c2)OCO3)c1N` it was inactive: 42.4%; in that of `Cc1cccc(NC(=O)CCS(=O)(=O)c2ccc3c(c2)n(C)c(=O)c(=O)n3C)c1C`, inactive: 16%.
With `CCOC(=O)c1noc2ncn(CC(=O)Nc3ccc(C)c(F)c3)c(=O)c12`, the activation was active: 76%.
`Nc1nc(Nc2ccccc2F)sc1C(=O)c1ccc(Cl)cc1`: the activation was inactive: -28.9%.
On to `CCc1cccc(NC(=O)C2CCN(C(=O)c3cnn(-c4ccccc4)c3-n3cccc3)CC2)c1`, for which the activation is inactive: -3.99%.
For the compound `CCOC(=O)C1CCCN(C(=O)c2nn(-c3ccc(OC)cc3)c(=O)c3c2c2ccccc2n3C)C1` (centres undefined), the activation is inactive: -21.1%.
The value for `CCc1ccc(-n2nc(C)c3c(C)cc(=O)n(CC(=O)N4CCCc5ccccc54)c32)cc1` was inactive: 4.54%; that for `O=c1cc(-c2ccccc2)n2c(SCc3ccccc3)nnc2[nH]1` was inactive: 2.15%.
The value for `Cc1cc2c(cc1CC(=O)c1sccc1S(=O)(=O)Nc1onc(C)c1Cl)OCO2` was inactive: 23%; that for `Cc1ccc(-n2c(=O)c3c(C)c(C(=O)N(C)C)sc3n(CC(=O)C(C)(C)C)c2=O)cc1C` was inactive: -7.54%.
The value for `Cc1c(C(=O)N(Cc2ccccc2F)C2CCS(=O)(=O)C2)oc2ccc(F)cc12` (centres undefined) was inactive: -8.91%; that for `Cn1c(=O)c2c(nc(NCc3ccccc3)n2Cc2ccccc2)n(C)c1=O` was inactive: 16.6%; that for `Cn1c(=O)c2c(SCC(=O)NCc3ccco3)nc(-c3ccccc3)nc2n(C)c1=O` was inactive: -2.08%.
In the case of `CCOC(=O)c1cnc2ccc(OC)cc2c1NCCc1ccccc1`, the activation is inactive: -5.01%.
The value for `COc1ccc(N2CC(NC(=O)COc3ccccc3)CC2=O)cc1OC` (centres undefined) was inactive: 16.2%; that for `Cc1cccc(CNC(=O)Cn2nc(C)n3c(cc4cc(F)ccc43)c2=O)c1` was inactive: -12%; that for `CCc1ccc(-n2nc3cc(C)c(NC(=O)c4cccc5ccccc45)cc3n2)cc1` was inactive: 8.31%.
In the case of `O=C(O)Cc1ccc(-c2ccccc2)cc1` it was inactive: 30%.
Consider `CN(c1ncnc2onc(-c3cccc(Cl)c3)c12)C1CCCCC1`, for which the activation is inactive: 5.93%.
The value for `Cc1ccc(-n2nc(CO)c(C(=O)NCc3ccccn3)n2)cc1C` was inactive: -7.92%; that for `CC1CCn2c(nc3cc(C(=O)NCCc4ccc(Cl)cc4)ccc32)C1` (centres undefined) was inactive: -7.24%.
The value for `COc1cccc(CNC(=O)C(=O)Nc2c3c(nn2-c2ccccc2)CSC3)c1` was inactive: -23.4%; that for `CCN(C(=O)C1CCN(S(=O)(=O)c2ccc3c(c2)CCCN3C(C)=O)CC1)c1cccc(C)c1` was inactive: -6.8%; that for `COc1ccccc1OCC(=O)NCC(c1ccc(Cl)cc1)N1CCCCC1` (centres undefined) was inactive: -18.9%.
In the case of `CC(=O)c1cccc(NC(=O)c2sc(-n3nc(C)c(Cc4ccc5c(c4)OCO5)c3C)nc2C)c1` it was inactive: -8.84%; in that of `CCOc1ccc(-c2cccc(NS(=O)(=O)c3c(C)cc(C)cc3C)c2)nn1`, inactive: -6.31%.
Turning to `COc1ccccc1CCNC(=O)C(=O)NCC(c1ccc2c(c1)OCO2)N1CCOCC1` (centres undefined), the activation was inactive: -2.68%.
Take `Cc1ccc2oc3c(c(=O)c2c1)C(c1ccc(F)cc1)N(Cc1ccc2c(c1)OCO2)C3=O` (centres undefined): the activation was inactive: 7.5%.
The value for `CCOC(=O)c1c(NC(C)=O)c2c3c(sc2n1Cc1nc(-c2cccc(Cl)c2)oc1C)CCCC3` was inactive: -12.1%.
As for `Cc1c(Cl)cccc1NC(=O)Cn1c(CCC(=O)O)ccc1-c1cccs1`, the activation was inactive: -11.1%.
Regarding `CC(C)(C)OC(=O)N1CCC(c2c(C(=O)N3CCCCC3)cnn2-c2ccc(Cl)cc2)CC1`, the activation was inactive: -10%.
The value for `CCN(CC)C(=O)CSc1nc(-c2ccccc2F)nc2c1Cc1c(CO)cnc(C)c1O2` was inactive: -2.51%; that for `Cc1c(-c2ccc(Br)cc2)c(=O)oc2ccc(OC(=O)N3CCOCC3)cc12` was inactive: 8.87%.
In the case of `COc1ccc(OC)c(-c2nnc3n(Cc4ccc(C)cc4)c(=O)c4ccccc4n23)c1`, the activation is inactive: -30.7%.
`CCOc1cc(C(=O)NCCc2csc3nc(-c4ccc(C)cc4)nn23)cc(OCC)c1OCC`: the activation is inactive: -6.78%.
The value for `COC(=O)c1ccccc1NC(=O)CSc1nc2ccsc2c(=O)n1CCC(C)C` was inactive: -11.7%; that for `C=Cc1ccc(Cn2c(C)c(CNCc3cccc(Br)c3)c(C(=O)O)c2C)cc1` was inactive: -1.51%; that for `COc1ccc(Cc2nc3ccccc3[nH]c2=O)cc1` was inactive: -2.38%.
Consider `Cc1c(Cl)cccc1-c1ccc(C(=O)Nc2ccc(F)cc2)o1`, for which the activation was active: 60.8%.
The value for `Cc1cccc(Cn2c(CNS(=O)(=O)c3ccc4c(c3)CCCC4)nc3cccnc32)c1` was inactive: -23.1%.
